Test results reported in a collection of fitness landscapes (doi:10.1016/j.celrep.2020.107928).
The full ranking holds about 81,000 sequences; the median of “one-hybrid fitness for binding NBS DNA” is about -0.1, and the highest 2% start at about 0.36. Some of the results follow.

B1: Caulobacter ParB omega fusion; a variant is named by its letters at X, in order, B8GW30 (parent)
chain: MESVVVGEPGMSEGRRGLGRGLSALLGEVDAAPAQAPGEQLGGSREAPIEILQRNPDQPRRTFREEDLEDLSNSIREKGVLQPILVRPSPDTAGEYQIVAGERAWRAAQRAGLKTVPIMVRELDDLAVLEIGIIENVQRADLNVLEEALSYKVLMEKFERTQENIAQTIGKSXSHVANXMRLLXLPDEVQSYLVSGELTAXHARAIAAAADPVALAKQIIEGGLSVRETEALARKAPNLSAGKSKGGRPPRVKDTDTQALESDLSSVLGLDVSIDHRGSTGTLTITYATLEQLDDLCNRLTRGI

Variants of: B1
Test: one-hybrid fitness for binding NBS DNA (the Noc-binding site; scaled: cognate 1, non-cognate 0); higher = stronger binding
Settings: with NBS DNA site
Outline: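 On M9-minus-histidine containing 0.1 mM IPTG and 5 mM 3-AT, E. coli USO cells with a HIS3 reporter, site 19 bp from the promoter, grew 48 hours at 37°C to select Caulobacter ParB libraries randomised at four specificity codons. Plasmids from before and after were Illumina-sequenced, with three replicate libraries pooled and variants under 10 reads left out. Fitness is the log change in variant-to-wild-type read ratio, rescaled against cognate and non-cognate.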

Row | Variant | one-hybrid fitness for binding NBS DNA
1 | ETSE | ≤ 0.2
2 | ERTN | ≤ 0.2
3 | HLAR | ≤ 0.2
4 | PFGK | ≤ 0.2
5 | KHMT | ≤ 0.2
6 | WDMR | ≤ 0.2
7 | DHYT | ≤ 0.2
8 | QYPW | ≤ 0.2
9 | MMAG | ≤ 0.2
10 | FLFY | ≤ 0.2
11 | VAKD | ≤ 0.2
12 | RFES | ≤ 0.2
13 | KVIR | ≤ 0.2
14 | YLRG | ≤ 0.2
15 | DPNS | ≤ 0.2
16 | FNQD | ≤ 0.2
17 | YEWR | ≤ 0.2
18 | RSDF | ≤ 0.2
19 | TVHS | ≤ 0.2
20 | TYYV | ≤ 0.2
21 | EGMS | ≤ 0.2
22 | NNND | ≤ 0.2
23 | ESSL | ≤ 0.2
24 | MQTM | ≤ 0.2
25 | WRGI | ≤ 0.2

Row | Variant | one-hybrid fitness for binding NBS DNA
26 | QPSN | ≤ 0.2
27 | WAME | ≤ 0.2
28 | HHLR | ≤ 0.2
29 | LERT | ≤ 0.2
30 | QLGR | 0.496
31 | FSIS | ≤ 0.2
32 | MSCT | ≤ 0.2
33 | SKRS | ≤ 0.2
34 | GTHC | ≤ 0.2
35 | RVKT | 0.652
36 | YYVS | ≤ 0.2
37 | RFRK | ≤ 0.2
38 | SSDT | ≤ 0.2
39 | PAFF | ≤ 0.2
40 | YICV | ≤ 0.2
41 | QVYK | ≤ 0.2
42 | RQFH | ≤ 0.2
43 | NADI | ≤ 0.2
44 | EISH | ≤ 0.2
45 | QEGG | ≤ 0.2
46 | KYYT | ≤ 0.2
47 | GCLV | ≤ 0.2
48 | WVRS | ≤ 0.2
49 | GKIC | ≤ 0.2
50 | RCTQ | ≤ 0.2

Row | Variant | one-hybrid fitness for binding NBS DNA
51 | NEQL | ≤ 0.2
52 | IMIC | ≤ 0.2
53 | QQFC | ≤ 0.2
54 | QCIG | ≤ 0.2
55 | PCSV | ≤ 0.2
56 | DKIL | ≤ 0.2
57 | QYLD | ≤ 0.2
58 | MQPC | ≤ 0.2
59 | ITKG | ≤ 0.2
60 | CVIT | ≤ 0.2
61 | RGGD | ≤ 0.2
62 | ATLD | ≤ 0.2
63 | LRNL | ≤ 0.2
64 | LRTL | ≤ 0.2
65 | HSAL | ≤ 0.2
66 | NIGL | ≤ 0.2
67 | NFFS | ≤ 0.2
68 | KYHR | ≤ 0.2
69 | IRHC | ≤ 0.2
70 | FNRL | ≤ 0.2
71 | NHPC | ≤ 0.2
72 | LTGS | ≤ 0.2
73 | KGFR | ≤ 0.2
74 | YAVQ | ≤ 0.2
75 | GVTG | ≤ 0.2

Row | Variant | one-hybrid fitness for binding NBS DNA
76 | PQDT | ≤ 0.2
77 | RMFF | ≤ 0.2
78 | MLSL | ≤ 0.2
79 | MANI | ≤ 0.2
80 | RCKW | ≤ 0.2
81 | QIIL | ≤ 0.2
82 | HRCP | ≤ 0.2
83 | QLVK | ≤ 0.2
84 | SNSM | ≤ 0.2
85 | AARR | ≤ 0.2
86 | RQEF | ≤ 0.2
87 | RFTT | 0.269
88 | VAEG | ≤ 0.2
89 | FSLD | ≤ 0.2
90 | PHFA | ≤ 0.2
91 | NKPR | ≤ 0.2
92 | TFKT | ≤ 0.2
93 | QSCD | ≤ 0.2
94 | YINW | ≤ 0.2
95 | LDPP | ≤ 0.2
96 | AGVE | ≤ 0.2
97 | MLHL | ≤ 0.2
98 | ACER | ≤ 0.2
99 | TCGT | ≤ 0.2
100 | CLEC | ≤ 0.2

Row | Variant | one-hybrid fitness for binding NBS DNA
101 | KSTG | ≤ 0.2
102 | PAVG | ≤ 0.2
103 | FWAT | ≤ 0.2
104 | MMDR | ≤ 0.2
105 | WTPL | ≤ 0.2
106 | ISWG | ≤ 0.2
107 | MNES | ≤ 0.2
108 | RYRM | 0.213
109 | EWGE | ≤ 0.2
110 | YGLG | ≤ 0.2
111 | RRPC | 0.249
112 | MMKW | ≤ 0.2
113 | IYWV | ≤ 0.2
114 | SHNF | ≤ 0.2
115 | CMAR | ≤ 0.2
116 | VPPW | ≤ 0.2
117 | HPLS | ≤ 0.2
118 | GSAQ | ≤ 0.2
119 | PVGS | ≤ 0.2
120 | SPQG | ≤ 0.2
121 | AWAV | ≤ 0.2
122 | EECL | ≤ 0.2
123 | GCLA | ≤ 0.2
124 | PNTY | ≤ 0.2
125 | DQMG | ≤ 0.2

Row | Variant | one-hybrid fitness for binding NBS DNA
126 | PTHT | ≤ 0.2
127 | QQSV | ≤ 0.2
128 | NVYP | ≤ 0.2
129 | DKLW | ≤ 0.2
130 | PPFN | ≤ 0.2
131 | DSPF | ≤ 0.2
132 | HHWF | ≤ 0.2
133 | KGRC | ≤ 0.2
134 | IGIR | ≤ 0.2
135 | YNSF | ≤ 0.2
136 | THGV | ≤ 0.2
137 | NDES | ≤ 0.2
138 | RSFE | ≤ 0.2
139 | GNAG | ≤ 0.2
140 | GHPH | ≤ 0.2
141 | QHSE | ≤ 0.2
142 | SRIY | ≤ 0.2
143 | ICTW | ≤ 0.2
144 | CPTR | ≤ 0.2
145 | WWAR | ≤ 0.2
146 | TACR | ≤ 0.2
147 | RLQI | ≤ 0.2
148 | GPPR | ≤ 0.2
149 | QSMG | ≤ 0.2
150 | PWNT | ≤ 0.2

Row | Variant | one-hybrid fitness for binding NBS DNA
151 | NLID | ≤ 0.2
152 | HTWF | ≤ 0.2
153 | LPEW | ≤ 0.2
154 | MAMR | ≤ 0.2
155 | VPVG | ≤ 0.2
156 | FRWR | ≤ 0.2
157 | YSCK | ≤ 0.2
158 | YHYY | ≤ 0.2
159 | ATKM | ≤ 0.2
160 | TFVI | ≤ 0.2
161 | RDPY | ≤ 0.2
162 | TNMS | ≤ 0.2
163 | HKNN | ≤ 0.2
164 | KRMV | ≤ 0.2
165 | PNWD | ≤ 0.2
166 | TRKV | 0.208
167 | LQDS | ≤ 0.2
168 | PDER | ≤ 0.2
169 | EHTG | ≤ 0.2
170 | DAAV | ≤ 0.2
171 | AILE | ≤ 0.2
172 | KRQR | 0.552
173 | PCMR | ≤ 0.2
174 | LAVL | ≤ 0.2
175 | VHMS | ≤ 0.2

Row | Variant | one-hybrid fitness for binding NBS DNA
176 | DYPY | ≤ 0.2
177 | SRNT | 0.236
178 | RALN | ≤ 0.2
179 | VVWT | ≤ 0.2
180 | EQSW | ≤ 0.2
181 | YEDL | ≤ 0.2
182 | WRFC | ≤ 0.2
183 | TKKF | ≤ 0.2
184 | HQHC | ≤ 0.2
185 | PRPR | ≤ 0.2
186 | SRGD | ≤ 0.2
187 | SSMI | ≤ 0.2
188 | ENPS | ≤ 0.2
189 | PSLN | ≤ 0.2
190 | QQCN | ≤ 0.2
191 | HHSV | ≤ 0.2
192 | MTIS | ≤ 0.2
193 | LETG | ≤ 0.2
194 | RPVK | ≤ 0.2
195 | GSTL | ≤ 0.2
